The labels stand for the following.
T1: RBFOX1 RRM RbFoxmut (Fox-RRM*) (Homo sapiens, UniProt Q9NWB1 109-208, R118D;E147R;N151S;E152T)
T1 sequence: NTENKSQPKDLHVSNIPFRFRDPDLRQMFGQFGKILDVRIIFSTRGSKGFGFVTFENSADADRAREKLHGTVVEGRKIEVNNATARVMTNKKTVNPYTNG

B1: CACUGCA (DNA:RNA)
RNA: GGGAGACCGGAAUUCAGAUUGUCCCACUGCAUUAAAUCCCGUCGUAGCCACCA
DNA 1: CAATCTGAATTCCGGTCTCCC
DNA 2: TGGTGGCTACGACGGGATT
B2: AACAACC (DNA:RNA)
RNA: B1 RNA with C25A, U28A, G29A, A31C
DNA 1: CAATCTGAATTCCGGTCTCCC
DNA 2: TGGTGGCTACGACGGGATT
B3: AUGCUUA (DNA:RNA)
RNA: B1 RNA with C25A, A26U, C27G, U28C, G29U, C30U
DNA 1: CAATCTGAATTCCGGTCTCCC
DNA 2: TGGTGGCTACGACGGGATT
B4: CGGUUCU (DNA:RNA)
RNA: B1 RNA with A26G, C27G, G29U, A31U
DNA 1: CAATCTGAATTCCGGTCTCCC
DNA 2: TGGTGGCTACGACGGGATT
B5: AGAUAAA (DNA:RNA)
RNA: B1 RNA with C25A, A26G, C27A, G29A, C30A
DNA 1: CAATCTGAATTCCGGTCTCCC
DNA 2: TGGTGGCTACGACGGGATT
B6: AAUGUGG (DNA:RNA)
RNA: B1 RNA with C25A, C27U, U28G, G29U, C30G, A31G
DNA 1: CAATCTGAATTCCGGTCTCCC
DNA 2: TGGTGGCTACGACGGGATT
B7: UUUAUAG (DNA:RNA)
RNA: GGGAGACCGGAAUUCAGAUUGUCCUUUAUAGUUAAAUCCCGUCGUAGCCACCA
DNA 1: CAATCTGAATTCCGGTCTCCC
DNA 2: TGGTGGCTACGACGGGATT
B8: GAUGGUA (DNA:RNA)
RNA: B1 RNA with C25G, C27U, U28G, C30U
DNA 1: CAATCTGAATTCCGGTCTCCC
DNA 2: TGGTGGCTACGACGGGATT
B9: AUUUGUC (DNA:RNA)
RNA: B1 RNA with C25A, A26U, C27U, C30U, A31C
DNA 1: CAATCTGAATTCCGGTCTCCC
DNA 2: TGGTGGCTACGACGGGATT
B10: AACCCAA (DNA:RNA)
RNA: B1 RNA with C25A, U28C, G29C, C30A
DNA 1: CAATCTGAATTCCGGTCTCCC
DNA 2: TGGTGGCTACGACGGGATT
B11: UAUUGUC (DNA:RNA)
RNA: B1 RNA with C25U, C27U, C30U, A31C
DNA 1: CAATCTGAATTCCGGTCTCCC
DNA 2: TGGTGGCTACGACGGGATT
B12: ACGGAGG (DNA:RNA)
RNA: B7 RNA with U25A, U26C, U27G, A28G, U29A, A30G
DNA 1: CAATCTGAATTCCGGTCTCCC
DNA 2: TGGTGGCTACGACGGGATT
B13: GCAACCU (DNA:RNA)
RNA: B1 RNA with C25G, A26C, C27A, U28A, G29C, A31U
DNA 1: CAATCTGAATTCCGGTCTCCC
DNA 2: TGGTGGCTACGACGGGATT
B14: UUCAAAC (DNA:RNA)
RNA: B7 RNA with U27C, U29A, G31C
DNA 1: CAATCTGAATTCCGGTCTCCC
DNA 2: TGGTGGCTACGACGGGATT
B15: GGGUGUG (DNA:RNA)
RNA: B1 RNA with C25G, A26G, C27G, C30U, A31G
DNA 1: CAATCTGAATTCCGGTCTCCC
DNA 2: TGGTGGCTACGACGGGATT
B16: UUCAACC (DNA:RNA)
RNA: B7 RNA with U27C, U29A, A30C, G31C
DNA 1: CAATCTGAATTCCGGTCTCCC
DNA 2: TGGTGGCTACGACGGGATT
B17: GAAUGCG (DNA:RNA)
RNA: B1 RNA with C25G, C27A, A31G
DNA 1: CAATCTGAATTCCGGTCTCCC
DNA 2: TGGTGGCTACGACGGGATT
B18: UGAUGUU (DNA:RNA)
RNA: B1 RNA with C25U, A26G, C27A, C30U, A31U
DNA 1: CAATCTGAATTCCGGTCTCCC
DNA 2: TGGTGGCTACGACGGGATT
B19: GAAAGAG (DNA:RNA)
RNA: B7 RNA with U25G, U26A, U27A, U29G
DNA 1: CAATCTGAATTCCGGTCTCCC
DNA 2: TGGTGGCTACGACGGGATT
B20: CACAAUC (DNA:RNA)
RNA: B1 RNA with U28A, G29A, C30U, A31C
DNA 1: CAATCTGAATTCCGGTCTCCC
DNA 2: TGGTGGCTACGACGGGATT

Where a chain is given by its changes, count along the chain named. The list shows a part of the results.

The values below come from PMC9911399, “Two distinct binding modes provide the RNA-binding protein RbFox with extraordinary sequence specificity”.

In the experiment the target is T1, RBFOX1 RRM RbFoxmut (Fox-RRM*). The experiment is described as follows: EMSA; HiTS-Eq, 1 nM pool, 10 min; buffer printed only for the single-RNA assays: 10 mM Tris pH 7.5, 150 mM NaCl, 3.4 mM EDTA, 0.001% NP-40, 30 C. The conditions noted are these: tags: His6 N-terminal (pET28a); label: 5' 32P. A digest of the protocol:
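A pool of RNA with 7 randomized nucleotides, 5′-radiolabelled and with DNA-annealed flanks, was equilibrated at 1 nM for 10 min in 50 µL with purified RbFox RRM, wild type or mutant, across increasing protein concentrations. Free RNA was separated by 8% native PAGE, excised, reverse-transcribed, barcoded by PCR and sequenced. Relative association constants were obtained from read-count changes of each RNA species versus the control reaction and normalised to the cognate motif.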
On to B1, for which the binding signal is 0.161 KA relative to UGCAUGU.

Take B2: the binding signal was 0.0392 KA relative to UGCAUGU.

Regarding B3, the binding signal is 0.167 KA relative to UGCAUGU.

Turning to B4, the binding signal is 0.102 KA relative to UGCAUGU.

For the molecule B5, the binding signal is 0.0997 KA relative to UGCAUGU.

As for B6, the binding signal was 0.09 KA relative to UGCAUGU.

For the molecule B7, the binding signal is 0.128 KA relative to UGCAUGU.

In the case of B8, the binding signal is 0.136 KA relative to UGCAUGU.

On to B9, for which the binding signal was 0.218 KA relative to UGCAUGU.

Turning to B10, the binding signal was 0.0716 KA relative to UGCAUGU.

Turning to B11, the binding signal was 0.197 KA relative to UGCAUGU.

As to B12, the binding signal was 0.109 KA relative to UGCAUGU.

For B13, the binding signal is 0.0331 KA relative to UGCAUGU.

B14: the binding signal is 0.0619 KA relative to UGCAUGU.

Take B15: the binding signal was 0.441 KA relative to UGCAUGU.

For the molecule B16, the binding signal is 0.0688 KA relative to UGCAUGU.

With B17, the binding signal was 0.763 KA relative to UGCAUGU.

With B18, the binding signal was 0.111 KA relative to UGCAUGU.

Take B19: the binding signal was 0.0755 KA relative to UGCAUGU.

Regarding B20, the binding signal is 0.0401 KA relative to UGCAUGU.
